PubChem BioAssay AID1460 (National Center for Advancing Translational Sciences (NCATS), 2008)
Among all 270,000 compounds or so, about 5,800 (2.1%) were called active. The shares of active, inactive and inconclusive entries below differ from those in the screen. Calls come from the whole dose curve; as a rule, active = well fitted inhibition curve with a large enough effect; inconclusive = small, poorly fitted or top-dose-only effect; inactive = flat fitted curve, though single readings scatter. Potencies of inconclusive entries are doubtful fits and often do not repeat.

Target: Microtubule-associated protein tau (Homo sapiens) (UniProt P10636)
Experiment: qHTS for Inhibitors of Tau Fibril Formation, Thioflavin T Binding; note: nearly all actives have a fitted effect of over 55% in size
Conditions: recombinant tau K18 P301L (four-repeat tau fragment), heparin-induced fibrillization, ThT fluorescence; series mostly up to 57.4 µM
How it was run: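 Recombinant human tau K18 fragment […] carrying P301L, 15 uM unlabeled plus 0.24 uM Alexa 594-labeled, was fibrillized with 20 uM heparin in 100 mM sodium acetate pH 7 for 6 hr at 37 C; 30 uM ThT fluorescence read after 1 hr.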
Potency is the fitted concentration of half-maximal effect; tags give direction and shape of the fitted curve.

Chain of UniProt P10636 (P10636 whole entry, looked up): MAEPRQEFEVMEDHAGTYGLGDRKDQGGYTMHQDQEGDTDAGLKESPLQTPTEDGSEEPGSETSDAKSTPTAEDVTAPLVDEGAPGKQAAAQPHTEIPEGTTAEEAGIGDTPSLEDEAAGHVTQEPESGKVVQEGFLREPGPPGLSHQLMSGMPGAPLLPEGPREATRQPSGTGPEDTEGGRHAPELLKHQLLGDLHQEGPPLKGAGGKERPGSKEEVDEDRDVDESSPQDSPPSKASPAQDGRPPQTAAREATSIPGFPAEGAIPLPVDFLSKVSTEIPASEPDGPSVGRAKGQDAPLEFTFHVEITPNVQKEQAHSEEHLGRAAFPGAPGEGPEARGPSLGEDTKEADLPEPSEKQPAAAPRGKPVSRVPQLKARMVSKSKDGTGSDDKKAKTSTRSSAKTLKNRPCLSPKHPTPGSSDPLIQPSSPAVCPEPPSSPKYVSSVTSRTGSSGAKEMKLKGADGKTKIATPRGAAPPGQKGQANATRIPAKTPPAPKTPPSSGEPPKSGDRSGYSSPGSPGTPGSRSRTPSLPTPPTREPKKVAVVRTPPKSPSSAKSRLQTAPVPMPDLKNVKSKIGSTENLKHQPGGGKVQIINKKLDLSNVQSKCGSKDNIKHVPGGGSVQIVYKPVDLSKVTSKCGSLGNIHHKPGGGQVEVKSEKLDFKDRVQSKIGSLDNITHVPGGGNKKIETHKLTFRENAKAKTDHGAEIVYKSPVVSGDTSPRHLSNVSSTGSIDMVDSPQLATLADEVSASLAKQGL

Structure (SMILES) | Potency
CC(=O)Nc1cccc(C(=O)/C=C/c2ccc(Br)cc2)c1 | inconclusive: 17.8 µM [inhibitor, partial curve]
CC1CCc2c(sc3ncnc(SCC(=O)c4ccccc4)c23)C1 (stereo not drawn) | inactive
CCOC(=O)CN1C(=O)S/C(=C/c2cccc([N+](=O)[O-])c2O)C1=O | active: 12.6 µM
CCN(C(=O)c1nn(C)c2c1CSc1ccccc1-2)c1cccc(C)c1 | inactive
COc1ccc(NC(=O)Cn2nc(C)c3c(C)n(-c4ccccc4)nc3c2=O)cc1OC | inactive
O=S(=O)(N/N=C/c1ccc(N2CCOCC2)cc1)c1ccccc1 | inactive
CC(C)n1c(NCc2ccc(N(C)C)cc2)nc2ccccc21 | inconclusive: 31.6 µM [inhibitor, single point]
COC(=O)C1(C)Cc2cc(OC(C)=O)c(OC(C)=O)cc2N1 (stereo not drawn) | inconclusive: 31.6 µM [inhibitor, single point]
COC(=O)/C(C#N)=C/c1ccc(OC(=O)c2ccccn2)cc1 | inconclusive: 31.6 µM [inhibitor, partial curve]
COc1ccc(N2CCN(CCCNC(=O)c3sc4ncccc4c3-n3cccc3)CC2)cc1 | inactive
CCOC(=O)C1=C(N)n2c(s/c(=C\c3ccncc3)c2=O)=C(C(=O)OCC)C1c1ccncc1 (stereo not drawn) | inconclusive: 2.24 µM [inhibitor, partial curve, poor fit]
Cc1ccc(N/N=C/c2cccnc2)cc1 | inconclusive: 12.6 µM [inhibitor, partial curve]
CN1CCN(C(=O)/C=C/c2ccc([N+](=O)[O-])o2)CC1 | inconclusive: 20 µM [inhibitor, single point]
CCn1c(SCC(=O)NCc2ccccc2)nc2nc3c(cc2c1=O)CCCC3 | inactive
O=C1NCCCC2c3cc(O)c4ccccc4c3OC12N1CCCCC1 (stereo not drawn) | active: 12.6 µM
COC(=O)c1ccc(NC(=S)N2CCN(Cc3ccc(Cl)cc3)CC2)cc1 | inconclusive: 12.6 µM [inhibitor, partial curve]
OC[C@@H]1[C@@H](c2ccc(Cl)cc2)C(c2ccccc2)=NN1c1ccccc1 | inconclusive: 15.8 µM [inhibitor, partial curve]
Cc1ccc(C(=O)N2CCc3cc(CNC(=O)c4ccccc4F)ccc32)cc1 | inactive
O=C(CNCC1CCCO1)Nc1ccc(N2CCCCCC2)cc1 (stereo not drawn) | inconclusive: 25.1 µM [inhibitor, single point]
CCOc1ccc(C2=C(C(C)=O)Sc3nnc(C)n3N2C(C)=O)cc1 | inconclusive: 14.1 µM [inhibitor, partial curve]
Cc1ccc(/C(N)=N/OC(=O)CCc2ccccc2)cc1 | active: 31.6 µM
CCN(CC(=O)Nc1cccc(S(=O)(=O)N2CCCC2)c1)CC(=O)Nc1ccccc1OC | inactive
COC(=O)C(C)Oc1ccc(Oc2nc(Cl)ccc2Cl)cc1 (stereo not drawn) | inconclusive: 20 µM [inhibitor, single point]
CCCOc1ccc2cc(-c3ccccn3)c(=O)oc2c1 | inconclusive: 22.4 µM [inhibitor, single point]
CC(C)(C)c1ccc(/C=N/Nc2ccc(C(=O)O)cc2)cc1 | inconclusive: 14.1 µM [inhibitor, partial curve]

Structure (SMILES) | Potency
Cc1cccc(/N=C/c2c(O)cc(C)oc2=O)n1 | inconclusive: 31.6 µM [inhibitor, single point]
Cn1cccc1-c1nc2ccc(NC(=O)c3ccc([N+](=O)[O-])cc3)cc2[nH]1 | active: 1.26 µM
COC(=O)c1c(C)[nH]c(C(=O)CC#N)c1C | inconclusive: 25.1 µM [inhibitor, partial curve]
Clc1ccc(-c2nnn3c2nc(N2CCCCC2)c2ccccc23)cc1 | inconclusive: 4.47 µM [inhibitor, full curve, poor fit]
CCc1nnc(NC(=O)CSc2nnc(COc3ccccc3C)o2)s1 | inconclusive: 10 µM [inhibitor, partial curve, poor fit]
O=S(=O)(c1ccc2c(c1)C(=NO)c1cc(S(=O)(=O)N3CCCCC3)ccc1-2)N1CCCCC1 | inactive
CCOc1ccc(NC(=O)c2cnn3c2NC(c2ccccc2)=CC3c2cccc(OC)c2OC)cc1 (stereo not drawn) | inconclusive: 1.58 µM [inhibitor, partial curve]
CN1CCc2nc(SCC(=O)Nc3cccc(F)c3)c(C#N)c(-c3cccs3)c2C1 | active: 14.1 µM
COc1cccc(-c2csc(N3CCN(C(=O)C4CCCCC4)CC3)n2)c1 | inconclusive: 15.8 µM [inhibitor, partial curve]
O=C(Nc1ccc2oc(-c3ccc4ccccc4c3)nc2c1)c1cccc(Cl)c1Cl | inconclusive: 0.708 µM [inhibitor, full curve]
CCn1c(-c2cc3c(C(F)(F)F)nn(C)c3s2)n[nH]c1=S | inactive
COc1ccc(NC(C)=O)cc1NC(=O)c1ccc2ccccc2c1 | inconclusive: 22.4 µM [inhibitor, partial curve]
Cc1ccc(NC(=O)c2ccc(Cl)c(N3C(=O)C=CC3=O)c2)cc1 | inactive
N#CC(=C=[N-])c1nc2ccccc2nc1-[n+]1cccc(NC(=O)c2ccc(F)cc2)c1 | inconclusive: 7.08 µM [inhibitor, partial curve]
Cc1c([N+](=O)[O-])c([N+](=O)[O-])nn1CC(=O)NCc1cccnc1 | inconclusive: 39.8 µM [inhibitor, single point]
O=[N+]([O-])c1cc(/C=N/O)ccc1Sc1ccccc1 | inconclusive: 39.8 µM [inhibitor, single point]
Cc1ccccc1OS(=O)(=O)c1cn(C)c(=O)n(C)c1=O | inactive
O=C(CN1CCN(c2ccccn2)CC1)Nc1ccc(OCc2ccccc2)cc1 | inconclusive: 22.4 µM [inhibitor, partial curve]
CCC(=O)NC(/C=C/c1ccccc1)c1cc([N+](=O)[O-])c2cccnc2c1O (stereo not drawn) | inconclusive: 5.01 µM [inhibitor, partial curve]
CC(=O)NCCNc1ncnc2ccc(-c3ccc(C(=O)N(C)C)cc3)cc12 | inactive
COc1ccc(-c2nc(CN3CCN(c4ccccc4OC)CC3)c(C)o2)cc1 | inconclusive: 15.8 µM [inhibitor, partial curve]
N=C1C(c2nc3ccccc3[nH]2)=C(O)CN1c1ccccc1 | inconclusive: 1.12 µM [inhibitor, full curve]
O=C(Cn1ccc2cc(S(=O)(=O)N3CCCCCC3)ccc21)NCCc1ccccc1Cl | inactive
Cc1ccc(-n2c(C)cc(/C=C(\C#N)C(=O)NCC3CCCO3)c2C)cc1 (stereo not drawn) | inconclusive: 3.16 µM [inhibitor, partial curve, poor fit]
COCCN=C1NN=C(c2ccc(C)c([N+](=O)[O-])c2)CS1 | inconclusive: 20 µM [inhibitor, partial curve]

Structure (SMILES) | Potency
CCCCSCCCNC(=O)c1cn(CC)c2ccc(S(=O)(=O)N(C)C3CCCCC3)cc2c1=O | inactive
CC(C)c1ccc(NC(=O)c2cccnc2)cc1 | inactive
O=[N+]([O-])c1ccc(N2CCN(S(=O)(=O)Cc3ccccc3)CC2)cc1N1CCOCC1 | inconclusive: 14.1 µM [inhibitor, partial curve]
Cc1ccc(C)c(-n2c(-c3ccc4c(c3)OCO4)n[nH]c2=S)c1 | inactive
Cc1ccc2nc(NC(=O)C3CCCN(S(=O)(=O)c4cccc5nonc45)C3)sc2c1 (stereo not drawn) | inactive
Cc1ccc(-c2noc(CN(C(=O)c3ccc(C(C)(C)C)cc3)C(C)C)n2)cc1 | inactive
COc1ccc(CNC(=O)Cc2nn(C)c(=O)c3ccccc23)cc1 | inactive
c1ccc2[nH]c3cc4ncnc4cc3nc2c1 | inconclusive: 12.6 µM [inhibitor, partial curve]
CN1c2cccc3cccc(c23)N(C)C1c1cccs1 | inconclusive: 31.6 µM [inhibitor, single point]
COc1ccc(-n2c(=O)c3c4c(sc3n(Cc3c(F)cccc3Cl)c2=O)CN(C(C)=O)CC4)cc1OC | inactive
CCOC(=O)c1cnc2c(Cl)c(Cl)ccc2c1Nc1ccc(N(C)C)cc1 | inconclusive: 28.2 µM [inhibitor, partial curve]
Cc1cc(NS(=O)(=O)c2ccc(NC(=S)NC(=O)c3ccc(Br)cc3)cc2)no1 | inconclusive: 17.8 µM [inhibitor, single point]
COc1ccc(C2CC(=O)N(Cc3cccc(C)c3)c3c2c(C)nn3-c2nc(C)cc(C)n2)c(OC)c1 (stereo not drawn) | inactive
CCOC(=O)c1c(-c2ccc(C)o2)csc1NC(=S)NC(=O)c1ccccc1Br | inconclusive: 20 µM [inhibitor, partial curve]
CC(C)NC(=S)N=Nc1c(O)[nH]c2ccc([N+](=O)[O-])cc12 | inconclusive: 17.8 µM [inhibitor, partial curve]
COc1cc(-c2nnc3n(CCc4ccccc4)c(=O)c4ccccc4n23)cc(OC)c1OC | inactive
O=C(NCc1ccc(Cl)cc1)C(=O)NCC(c1cccnc1)N1CCN(c2ccccc2)CC1 (stereo not drawn) | inactive
CCN(CC)c1ccc(NC(=S)Nc2ccc(F)cc2)cc1 | active: 12.6 µM
Cc1nc2ccccc2c2nc(N)nn12 | inactive
CCOC(=O)C1=C(O)/C(=C\c2cccc(OC)c2)N=C1C | inconclusive: 17.8 µM [inhibitor, partial curve]
CC(Nc1ncnc2c1cnn2-c1cccc(Cl)c1)c1ccccc1 (stereo not drawn) | inconclusive: 39.8 µM [activator, single point]
N#CC(c1ccc(O)cc1)N1CCOCC1 (stereo not drawn) | inactive
COc1cccc(-c2nnc(SCC(=O)N3CCc4ccccc43)o2)c1 | inconclusive: 10 µM [inhibitor, partial curve, poor fit]
